Reference: PubChem BioAssay AID1508623 (National Center for Advancing Translational Sciences (NCATS), 2021)
Out of some 48,000 compounds screened, about 450 (0.94%) were called active. This list was built around the results that the source calls inconclusive (neither active nor inactive); the mix of calls is not that of the screen. Calls follow the shape of the dose curve; as a rule, active = well fitted inhibition curve with a large enough effect; inconclusive = small, poorly fitted or top-dose-only effect; inactive = no such curve, though single readings can be large or run the other way. Where the call is inconclusive, the potency comes from a doubtful curve fit.

assay: Primary qHTS for Identification of Small Molecule Inhibitors of Huntingtin Promoter Activity; details: HEK293 HTT promoter firefly luciferase reporter (activity 0% = vehicle and -100% = no light), 24 h; series mostly up to 57.5 µM; also: nearly all actives have a fitted effect of over 50% in size
In short: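 HEK293 luciferase promoter-reporter cells (2,500/well) plated 24 h, then compounds added at up to 57.5 uM final for 24 h at 37 °C. Firefly luminescence by Dual-Glo, normalized to vehicle (0%) and zero RLU (-100%).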
Potency is read from the fitted curve at half-maximal effect; tags tell the direction and shape of the fitted curve.

Potency, inactive:
N#CC1=C2SCN(C3CCCCC3)CN2C(=O)CC1c1ccc(Cl)cc1 (centres undefined), CCC(CC)C(=O)Nc1cccc(-c2cn3cccnc3n2)c1, CCc1ccc(NC(=O)C2CCN(c3ccc(Sc4ccc(C)cc4)nn3)CC2)cc1, CCc1ccc(C2=CC(c3cccc(OC)c3OC)n3c(nc4ccccc43)N2)cc1 (centres undefined), CCCCCCCCCCCCCCCCCCN(C)C, CCc1ccccc1-n1nnc(-c2nc(-c3ccccc3F)no2)c1C, Cc1ccc2nc(-c3ccc(N4CCOCC4)cc3)c(Nc3ccccc3C)n2c1, Cc1[nH]c2ccccc2c1C1(O)C(=O)N(Cc2ccccc2)c2ccc(Br)cc21 (centres undefined)

Potency, active:
CC1CCN(c2nc3ccc(C(=O)N4CCN(c5ccccc5)CC4)cc3s2)CC1 1.12 µM

Potency, inconclusive:
CCOc1ccc(N(CC)C(=O)c2cc3c(s2)-c2ccccc2OC3)cc1 39.8 µM [inhibitor, single point], O=C(NCc1ccccc1F)c1ccc(CSc2nc3cccnc3n2Cc2ccccc2)cc1 39.8 µM [inhibitor, single point], COc1ccc(OC)c(NC(=O)[C@H](CSCc2ccccc2)N2Cc3ccccc3C2=O)c1 39.8 µM [inhibitor, single point], Cc1ccc(CNC(=O)C(=O)NCC(c2ccco2)S(=O)(=O)c2ccccc2)cc1 (centres undefined) 15.8 µM [inhibitor, partial curve], COc1ccc2c(CNCCc3cccs3)c(C(=O)O)n(Cc3ccc(F)cc3Cl)c2c1 28.2 µM [inhibitor, single point], CCCCN1CC(c2nc3ccccc3n2CCCCOc2cccc(C)c2C)CC1=O (centres undefined) 25.1 µM [inhibitor, partial curve], COCCCNc1oc(-c2ccc(COc3ccccc3C)o2)nc1C#N 25.1 µM [inhibitor, single point], Cc1c(Cl)cccc1-c1ccc(C(=O)Nc2ccc3oc(-c4cccnc4)nc3c2)o1 39.8 µM [inhibitor, single point], CN(C(=O)CSc1nc2ccc(NC(=O)c3ccco3)cc2s1)c1ccccc1 39.8 µM [inhibitor, single point], CC(C)C[C@@H](C=O)NC(=O)[C@H](CC(C)C)NC(=O)[C@H](CC(C)C)NC(=O)OCc1ccccc1 3.06 µM [inhibitor, full curve], CCC1=Nc2cc(C(=O)NC3CCCC3)ccc2Sc2ccc(Cl)cc21 10 µM [inhibitor, partial curve], CCc1ccc(NC(=O)c2ccc(CNS(=O)(=O)c3ccc4c(c3)C(C)(C)C(=O)N4C)cc2)cc1 22.4 µM [inhibitor, partial curve, poor fit], COc1ccc(CCNC(=O)CCCCn2c(=O)c3ccccc3n(Cc3cccc(C)c3)c2=O)cc1OC 39.8 µM [inhibitor, single point], CCOc1ccc(CCNc2ncnc3onc(C)c23)cc1OCC 1.58 µM [inhibitor, full curve, poor fit], CCOC(=O)c1cnc2c(OC)cccc2c1N1CCN(c2ccccc2F)CC1 28.2 µM [inhibitor, single point], COc1ccc(C(=O)Nc2ccc3c(c2)CCCN3S(=O)(=O)c2ccc(C)cc2)cc1 28.2 µM [inhibitor, partial curve, poor fit], CCc1ccc(-c2nc(CN3CCCC(C(=O)NCc4ccccc4Cl)C3)c(C)o2)cc1 (centres undefined) 39.8 µM [inhibitor, single point], CCOc1ccc(N(CC)S(=O)(=O)N2CCCC(C(=O)NCc3ccccc3OCC)C2)cc1 (centres undefined) 20 µM [inhibitor, single point], CCOC(=O)C1=C(CN2CCN(c3ccc(Cl)cc3)CC2)NC(=O)NC1c1ccc(F)cc1 (centres undefined) 22.4 µM [inhibitor, single point], O=C(Nc1cccc(F)c1)C1CCN(c2nc3ccccc3nc2C(F)(F)F)CC1 39.8 µM [inhibitor, single point], O=C(NCCn1cc(SCc2ccc(C(F)(F)F)cc2)c2ccccc21)c1cccs1 39.8 µM [inhibitor, single point], COc1ccc(-n2nc3c(N4CCCC(C(=O)NCc5ccccc5C)C4)nnc(C)c3c2C)cc1 (centres undefined) 39.8 µM [inhibitor, single point], Cc1nnc(SCC(=O)NCc2cccc(F)c2)c2nn(-c3ccccc3)c(C)c12 14.1 µM [inhibitor, partial curve, poor fit], Cc1ccc(-n2ncc(C(=O)NCCN3CCc4ccccc4C3)c2C2CCN(C(=O)OC(C)(C)C)CC2)c(C)c1 25.1 µM [inhibitor, partial curve, poor fit], O=C(CN1C(=O)COc2ccc(S(=O)(=O)NC3CCCC3)cc21)Nc1ccc(F)c(Cl)c1 25.1 µM [inhibitor, single point], COc1ccccc1CNc1ncnc2onc(-c3ccc(Cl)cc3)c12 22.4 µM [inhibitor, single point], CCCS(=O)(=O)NCCc1sc2nc(-c3ccc(Cl)cc3)nn2c1C 11.2 µM [inhibitor, partial curve, poor fit], Cc1cc(C(=O)Nc2ccc(Cl)cc2)c2c(C)nn(-c3ccccc3)c2n1 17.8 µM [inhibitor, single point], CCOC(=O)N1CCc2c(sc(NCc3ccc(N(C)C)cc3)c2C(=O)Nc2ccccc2OCC)C1 20 µM [inhibitor, partial curve, poor fit], CCN(CC)CCNC(=O)Cn1cnc2sc(C)c(S(=O)(=O)N3CCN(c4ccccc4OC)CC3)c2c1=O 0.251 µM [inhibitor, full curve]
